This note sets out measurements from publication PMC12390733.

This test addresses GFP-tagged SARS-CoV-2 nonstructural protein 3 (NSP3) (SARS-CoV-2) (UniProt P0DTD1). Nature of the test: co-IP.

These are yes or no findings as the source states them, for the method shown. In cells and extracts the contact can be indirect. Some binding calls cover weakened binding; strength is not graded here. Tags and fused reporters may be left off the sequences shown.

B1: Myc-tagged DNAJC11 (DnaJ homolog subfamily C member 11) (protein, UniProt Q9NVH1 1-559)
chain: MATALSEEELDNEDYYSLLNVRREASSEELKAAYRRLCMLYHPDKHRDPELKSQAERLFNLVHQAYEVLSDPQTRAIYDIYGKRGLEMEGWEVVERRRTPAEIREEFERLQREREERRLQQRTNPKGTISVGVDATDLFDRYDEEYEDVSGSSFPQIEINKMHISQSIEAPLTATDTAILSGSLSTQNGNGGGSINFALRRVTSAKGWGELEFGAGDLQGPLFGLKLFRNLTPRCFVTTNCALQFSSRGIRPGLTTVLARNLDKNTVGYLQWRWGIQSAMNTSIVRDTKTSHFTVALQLGIPHSFALISYQHKFQDDDQTRVKGSLKAGFFGTVVEYGAERKISRHSVLGAAVSVGVPQGVSLKVKLNRASQTYFFPIHLTDQLLPSAMFYATVGPLVVYFAMHRLIIKPYLRAQKEKELEKQRESAATDVLQKKQEAESAVRLMQESVRRIIEAEESRMGLIIVNAWYGKFVNDKSRKSEKVKVIDVTVPLQCLVKDSKLILTEASKAGLPGFYDPCVGEEKNLKVLYQFRGVLHQVMVLDSEALRIPKQSHRIDTDG
For B1, the binding result is “binds”.
